The list shows a part of the results. Sequences were assembled here from the parent chain. Values near 0.05 are background.
B1: TEV protease; numbered along this chain (parent)
chain: MGESLFKGPRDYNPISSSICHLTNESDGHTTSLYGIGFGPFIITNKHLFRRNNGTLVVQSLHGVFKVKDTTTLQQHLVDGRDMIIIRMPKDFPPFPQKLKFREPQREERICLVTTNFQTKSMSSMVSDTSCTFPSGDGIFWKHWIQTKDGQCGSPLVSTRDGFIVGIHSASNFTNTNNYFTSVPKNFMELLTNQEAQQWVSGWRLNADSVLWGGHKVFMVKPEEPFQPVKEATQL

Variants of: B1
Assay: raw area under fraction-flipped curve 0-4 h after induction (AUC4h, not background-subtracted), DNA-recorder readout of cleavage of the substrate (dimensionless); higher = more cleavage of the substrate by the protease variant
Conditions: temperature: 34 °C; time window: 0-4 h after rhamnose induction
Description: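 In vivo DNA recorder in E. coli TOP10(DE3) ΔrhaA at 34 °C. Each TEVp single-site mutant (parent TEVp 0) is paired with a single-site variant of the 7-mer TEVs (canonical ENLYFQ|S). The substrate sits between flexible linkers in a Bxb1-sfGFP-TEVs-SsrA fusion, so cleavage stabilises Bxb1 and speeds flipping of a recombination array, read by NGS. The value is the raw area under the fraction-flipped curve over 0-4 h after rhamnose induction (AUC4h), with ≥20 reads per time point. It is not background-subtracted; inactive controls average about 0.047.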
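Also: Bxb1 expression induced with 0.2% (w/v) L-rhamnose at OD600 near 0.5, cultures sampled hourly, flipped fraction per protease–substrate barcode pair counted by paired-end Illumina sequencing.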

Row | Variant | area with substrate EALYFQS | area with substrate ECLYFQS | area with substrate EDLYFQS | area with substrate EELYFQS | area with substrate EGLYFQS | area with substrate EHLYFQS | area with substrate EILYFQS | area with substrate ELLYFQS | area with substrate EPLYFQS | area with substrate EQLYFQS | area with substrate ERLYFQS | area with substrate ESLYFQS | area with substrate EVLYFQS | area with substrate EWLYFQS | area with substrate EYLYFQS | area with substrate EKLYFQS | area with substrate EMLYFQS | area with substrate EFLYFQS | area with substrate ETLYFQS
1 | T192N | 0.107 | 0.149 | 0.109 | 0.106 | 0.112 | 0.126 | 0.101 | 0.083 | 0.152 | 0.118 | 0.0611 | 0.106 | 0.0774 | 0.108 | 0.124 |  |  |  | 
2 | K142Y | 0.105 | 0.104 | 0.129 |  |  |  | 0.0873 | 0.0869 |  |  | 0.0913 | 0.0889 |  |  | 0.0881 | 0.107 | 0.0978 |  | 
3 | Y12Q | 0.0918 | 0.11 | 0.133 | 0.0997 | 0.107 | 0.112 | 0.106 | 0.0974 | 0.123 | 0.113 |  | 0.0935 | 0.109 | 0.115 | 0.151 | 0.115 | 0.124 | 0.0817 | 0.131
4 | W144I | 0.0897 | 0.0834 |  | 0.0921 | 0.075 | 0.0791 |  | 0.0836 | 0.0971 | 0.103 |  | 0.0874 | 0.0887 |  |  | 0.082 |  |  | 0.136
5 | R102G | 0.0697 | 0.0423 | 0.0596 | 0.0419 | 0.0645 | 0.0359 | 0.0459 | 0.0527 | 0.0721 |  | 0.0637 | 0.0468 | 0.0571 | 0.0533 |  | 0.0585 |  | 0.0682 | 0.0717
6 | N52G | 0.0442 | 0.0699 | 0.0954 | 0.0694 | 0.0613 | 0.0719 | 0.0699 |  | 0.0647 | 0.0705 | 0.0881 | 0.0813 | 0.069 | 0.0648 |  | 0.0631 | 0.0743 | 0.0591 | 0.0797
7 | R106Q | 0.108 | 0.109 | 0.117 | 0.129 | 0.0213 | 0.101 | 0.0893 | 0.111 | 0.122 | 0.122 | 0.102 | 0.101 | 0.0935 | 0.0901 | 0.103 | 0.109 |  | 0.0863 | 0.094
8 | G80W | 0.133 |  |  |  | 0.102 | 0.112 | 0.0774 | 0.102 | 0.136 | 0.136 | 0.0441 | 0.0825 | 0.102 |  |  | 0.121 | 0.11 | 0.0844 | 
9 | S32K | 0.148 | 0.104 |  |  | 0.135 |  | 0.113 |  |  |  | 0.123 | 0.114 | 0.128 | 0.126 | 0.0951 | 0.167 |  |  | 
10 | F226D | 0.104 | 0.102 | 0.114 |  |  | 0.137 | 0.0898 |  |  | 0.106 |  |  |  |  |  | 0.124 | 0.108 | 0.132 | 0.123
11 | G80Q | 0.142 | 0.14 | 0.127 | 0.116 |  | 0.128 | 0.078 |  | 0.136 | 0.078 |  | 0.0958 | 0.0792 | 0.0755 | 0.112 | 0.103 | 0.111 |  | 0.122
12 | S127T | 0.102 | 0.151 | 0.1 | 0.122 | 0.0927 | 0.0891 | 0.0994 | 0.11 | 0.151 |  | 0.0904 | 0.104 | 0.105 | 0.0902 |  | 0.11 | 0.103 | 0.059 | 
13 | G8N | 0.208 |  |  |  | 0.113 | 0.102 |  |  |  | 0.123 |  |  |  |  |  |  | 0.12 | 0.114 | 
14 | E224Q | 0.0906 | 0.139 |  | 0.0799 |  |  | 0.0892 | 0.0766 | 0.115 |  | 0.0961 | 0.0988 | 0.123 |  |  | 0.111 | 0.0795 | 0.111 | 0.13
15 | E224I | 0.0952 | 0.105 |  | 0.12 |  | 0.0975 | 0.0963 | 0.105 |  |  | 0.103 | 0.088 | 0.0698 |  |  | 0.0718 | 0.0893 | 0.0795 | 
16 | N24F | 0.0706 | 0.092 | 0.0896 | 0.102 | 0.0583 | 0.0101 | 0.0723 | 0.079 |  | 0.103 |  | 0.0845 | 0.0473 |  | 0.0777 | 0.0875 | 0.0998 | 0.0839 | 
17 | W212E | 0.0901 | 0.0772 |  |  | 0.0628 | 0.0902 | 0.0663 | 0.101 | 0.0984 | 0.0535 | 0.0448 | 0.0764 | 0.0602 | 0.11 | 0.0835 |  | 0.081 |  | 
18 | S18N | 0.11 | 0.129 | 0.124 | 0.137 | 0.0671 |  | 0.0756 | 0.103 |  | 0.11 |  | 0.102 | 0.0954 | 0.0774 |  | 0.0924 | 0.0722 | 0.083 | 0.115
19 | D149G | 0.117 | 0.0967 | 0.124 | 0.109 | 0.0647 | 0.104 | 0.0776 | 0.081 | 0.0972 | 0.0885 | 0.0774 | 0.0772 |  | 0.114 |  | 0.0691 | 0.1 | 0.0867 | 
20 | I15F | 0.105 | 0.098 | 0.102 | 0.122 | 0.0868 | 0.0971 | 0.0908 | 0.0699 | 0.105 | 0.107 | 0.0914 | 0.0997 | 0.0954 |  | 0.103 | 0.1 | 0.106 | 0.101 | 0.0988
21 | P96E | 0.118 | 0.104 | 0.124 |  | 0.0839 |  |  |  |  | 0.123 | 0.107 | 0.0984 | 0.105 |  | 0.142 |  | 0.105 |  | 0.128
22 | N186Y | 0.122 | 0.0974 |  |  |  |  |  |  |  |  |  | 0.0978 | 0.0939 | 0.0977 |  |  |  |  | 
23 | T174R | 0.141 | 0.0755 | 0.117 | 0.117 | 0.103 | 0.0839 | 0.0695 |  |  | 0.129 |  | 0.0901 | 0.0726 | 0.0916 |  | 0.0912 | 0.101 | 0.0779 | 0.139
24 | T44R | 0.05 | 0.0419 | 0.0382 | 0.0436 | 0.0579 | 0.049 | 0.0521 | 0.0388 | 0.0527 | 0.0453 | 0.0473 | 0.0466 | 0.0534 | 0.0523 | 0.0338 | 0.0357 |  | 0.0136 | 0.0739
25 | V64Y | 0.13 |  |  |  |  |  |  | 0.0829 |  | 0.125 |  |  | 0.0814 |  |  |  |  |  | 
26 | D69P | 0.126 | 0.0763 | 0.103 | 0.0959 | 0.0643 | 0.0873 | 0.0879 | 0.0863 |  | 0.0812 | 0.0876 | 0.0976 | 0.0929 | 0.0771 | 0.0576 | 0.085 | 0.0925 | 0.0947 | 0.104
